Hit rate of the full screen: of about 390,000 compounds, about 17,000 (4.4%) were called active. Inconclusive results, whose numbers are uncertain, are shown with a selection of clear calls. Calls come from the whole dose curve; as a rule, active = well fitted inhibition curve with a large enough effect; inconclusive = small, poorly fitted or top-dose-only effect; inactive = no such curve, though single readings can be large or run the other way. Potencies beside an inconclusive call are fits to weak or partial responses and may not hold up.
Biological target: Lysine-specific demethylase 4A (Homo sapiens) (UniProt O75164)
Test: qHTS Assay for Inhibitors of JMJD2A-Tudor Domain; note: nearly all actives have a fitted effect of over 50% in size
Details: AlphaScreen JMJD2A-Tudor / H3K4me3 peptide binding; activity change, negative = inhibition: at 114 µM (top of the series)
% is set by controls: 0 for no effect and ±100 for the full control effect; potency is the fitted concentration of half-maximal effect; tags give direction and shape of the fitted curve.

Sequence of UniProt O75164 (O75164 whole entry, looked up, the tested form may be a part): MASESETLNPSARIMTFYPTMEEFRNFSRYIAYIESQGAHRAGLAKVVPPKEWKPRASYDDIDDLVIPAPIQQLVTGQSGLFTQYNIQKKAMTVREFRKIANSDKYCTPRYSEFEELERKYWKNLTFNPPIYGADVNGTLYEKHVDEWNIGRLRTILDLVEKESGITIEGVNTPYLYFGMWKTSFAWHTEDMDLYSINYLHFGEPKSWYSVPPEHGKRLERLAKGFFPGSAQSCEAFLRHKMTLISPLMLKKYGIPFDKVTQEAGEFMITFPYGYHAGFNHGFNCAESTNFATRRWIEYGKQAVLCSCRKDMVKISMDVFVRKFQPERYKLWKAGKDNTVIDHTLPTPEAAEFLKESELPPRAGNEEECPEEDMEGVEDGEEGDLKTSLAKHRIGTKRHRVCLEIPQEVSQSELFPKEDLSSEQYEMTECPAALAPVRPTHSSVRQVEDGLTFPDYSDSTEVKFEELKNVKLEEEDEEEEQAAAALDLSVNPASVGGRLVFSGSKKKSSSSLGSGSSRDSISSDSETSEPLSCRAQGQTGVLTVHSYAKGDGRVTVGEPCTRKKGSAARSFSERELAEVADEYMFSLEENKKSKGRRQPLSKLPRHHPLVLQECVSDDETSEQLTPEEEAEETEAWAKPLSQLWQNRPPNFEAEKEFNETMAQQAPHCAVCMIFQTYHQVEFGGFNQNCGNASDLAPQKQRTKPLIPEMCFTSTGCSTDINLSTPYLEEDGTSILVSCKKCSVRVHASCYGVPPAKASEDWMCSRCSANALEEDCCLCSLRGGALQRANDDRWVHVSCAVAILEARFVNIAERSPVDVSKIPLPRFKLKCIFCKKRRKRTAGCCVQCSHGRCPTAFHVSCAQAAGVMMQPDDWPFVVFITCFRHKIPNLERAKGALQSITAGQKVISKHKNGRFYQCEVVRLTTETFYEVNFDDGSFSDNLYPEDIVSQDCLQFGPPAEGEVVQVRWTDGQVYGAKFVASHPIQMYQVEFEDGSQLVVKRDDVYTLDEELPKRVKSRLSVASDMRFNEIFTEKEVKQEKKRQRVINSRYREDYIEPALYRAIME

| SMILES | activity change, negative = inhibition | Potency |
| --- | --- | --- |
| O=C(Nc1ccc2oc(=O)ccc2c1)c1cc2ccccc2o1 | inactive: -1.13% | – |
| COc1cc(NC(=O)C2CCN(S(=O)(=O)c3c(C)noc3/C=C/c3cccs3)CC2)cc(OC)c1 | inactive: -16.3% | – |
| O=c1nc(N/N=C/c2c[nH]c3ccccc23)cn[nH]1 | inactive: -5.86% | – |
| Cc1ccc(S(=O)(=O)NC2CC(C)(C)NC(C)(C)C2)cc1C | inactive: -5.48% | – |
| O=C(Nc1ccc(C(=O)N2CCN(c3ccc(Cl)cc3)CC2)cc1)C1=CSCCO1 | – | inconclusive: 39.8 µM [inhibitor, partial curve] |
| O=C(c1ccc(Cl)cc1)c1cc([N+](=O)[O-])ccc1N1CCOCC1 | – | inconclusive: 44.7 µM [inhibitor, partial curve] |
| CCC(Sc1nc2ccccc2c2nc(CCn3c(C)nc4ccccc43)nn12)C(=O)Nc1ccc(F)cc1 (configuration not stated) | inactive: -20.3% | – |
| C[C@H]1c2cccc(O)c2C(=O)C2C(=O)C3(O)C(=O)C(C(N)=O)C(=O)[C@@H](N(C)C)[C@@H]3[C@@H](O)[C@@H]21 (some centres not stated) | – | active: 12.6 µM |
| Cc1c(NC2=C(Cl)C(=O)N(c3ccccc3Cl)C2=O)c(=O)n(-c2ccccc2)n1C | – | inconclusive: 56.2 µM [inhibitor, partial curve] |
| COc1ccc(OC)c2sc(N3CCN(C(=O)c4ccc5ncsc5c4)CC3)nc12 | – | inconclusive: 56.2 µM [inhibitor, partial curve] |
| S=C1CCC(c2ccc(Br)cc2)=NN1c1ccccc1 | – | inconclusive: 50.1 µM [inhibitor, partial curve] |
| O=C(CCSCCC(=O)NCc1ccccc1)NCc1ccccc1 | inactive: -13.6% | – |
| CC(CCc1ccccc1)NC(=O)CN1CCSc2ccccc21 (configuration not stated) | – | active: 56.2 µM |
| Cc1nnc(N2C(=O)C(O)=C(C(=O)c3ccco3)C2c2ccc(C(C)C)cc2)s1 (configuration not stated) | – | inconclusive: 70.8 µM [inhibitor, single point] |
| Cc1ccc(NC(=O)C2CCN(S(=O)(=O)c3c(C)nn(C)c3C)CC2)c(Cl)c1 | inactive: -2.06% | – |
| COc1ccc(Cn2c(C)nc3c(c(=O)c4ccccc4n3C)c2=O)cc1 | inactive: -14.2% | – |
| COc1ccc(C(=O)OCC(=O)Nc2ncc([N+](=O)[O-])s2)cc1OC | – | active: 39.8 µM |
| CS(=O)(=O)N(CC(=O)N/N=C/c1ccccn1)c1ccc(Oc2ccccc2)cc1 | – | inconclusive: 31.6 µM [inhibitor, full curve, poor fit] |
| C=CCNc1nc(-c2ccc3c(c2)OCCO3)cs1 | – | inconclusive: 56.2 µM [inhibitor, partial curve] |
| Cc1ccc(N2C(=O)c3ccc(C(=O)N4CCN(Cc5ccccc5)CC4)cc3C2=O)cc1 | – | inconclusive: 1 µM [inhibitor, partial curve, poor fit] |
| COc1ccc(OCCn2nnc3sc4c(c3c2=O)CCC(C(C)(C)C)C4)cc1 (configuration not stated) | inactive: -20.8% | – |
| Cc1ccc(CN(CC(=O)N/N=C/c2ccco2)S(=O)(=O)c2ccc(C)cc2)cc1 | – | inconclusive: 56.2 µM [inhibitor, partial curve] |
| O=C1C2CC=CCC2C(=O)N1c1ccc(NCCc2ccccc2)c([N+](=O)[O-])c1 (configuration not stated) | – | inconclusive: 14.1 µM [inhibitor, partial curve] |

| SMILES | activity change, negative = inhibition | Potency |
| --- | --- | --- |
| O=C(Nc1ncccc1O)c1cccc(S(=O)(=O)N2CCCC2)c1 | – | inconclusive: 39.8 µM [inhibitor, single point] |
| C#CCOCCOCCOCCNc1nc(N2CCN(C(=O)C([C@@H](C)CC)n3cc(C(N)CC(C)C)nn3)CC2)nc(N2CCN(C(=O)[C@H](CCC(=O)O)n3cc(C(N)[C@H](C)CC)nn3)CC2)n1 (some centres not stated) | – | active: 70.8 µM |
| COc1ccccc1N1CCN(CC(O)COc2ccc3c(c2)CCC3)CC1 (configuration not stated) | – | inconclusive: 89.1 µM [inhibitor, single point] |
| COc1ccccc1COCC(O)CNCCc1ccc(C(F)(F)F)cc1 (configuration not stated) | – | active: 79.4 µM |
| CCOc1ccc2nc(N3C(=O)C(O)=C(C(=O)c4ccco4)C3c3ccco3)sc2c1 (configuration not stated) | – | active: 39.8 µM |
| CCC(NC(=O)Nc1cc(Cl)ccc1OC)c1c(-n2cccc2)sc2c1CCN(C)C2 (configuration not stated) | – | inconclusive: 56.2 µM [inhibitor, partial curve] |
| CCC[C@@H](CN1CCC[C@H]1CN1C(N)=NC[C@@H]1Cc1ccccc1)N1C[C@@H]([C@H](C)CC)N(CCc2ccc(Cl)c(Cl)c2)C1=N | – | inconclusive: 56.2 µM [inhibitor, partial curve] |
| COc1cc2c3c(c1)C(C)CC(C)(C)N3C(=O)C2=O (configuration not stated) | – | inconclusive: 50.1 µM [inhibitor, partial curve] |
| S=C(c1ccc2c(c1)OCO2)N1CCCCC1 | inactive: -21.6% | – |
| CCOC(=O)c1c(-c2ccc(C)s2)csc1N | – | inconclusive: 63.1 µM [inhibitor, partial curve] |
| COc1ccc(C(C(O)C(=O)c2c[nH]c3ccccc23)N2CCN(c3ccccc3)CC2)cc1 (configuration not stated) | – | inconclusive: 39.8 µM [inhibitor, full curve] |
| O=C(OCn1nnc2ccccc2c1=O)c1ccc2c(=O)n3c(nc2c1)CCC3 | – | inconclusive: 89.1 µM [inhibitor, single point] |
| Cc1ccc(C2=NN(C(=O)CCCC(=O)O)C(c3ccco3)C2)cc1 (configuration not stated) | inactive: -7.47% | – |
| c1ccc(CN2CCN(CCN3CCn4c3nc3ccccc34)CC2)cc1 | – | inconclusive: 89.1 µM [inhibitor, single point] |
| CC(C)CCn1c(O)c(N=NC(=O)Cn2ccc(C(F)(F)F)n2)c2ccccc21 | – | active: 50.1 µM |
| CCCCCc1cc(=O)oc2c(C(CCN3CCCC(C)C3)c3cc(OC)c(OC)c(OC)c3)c(OC)cc(OC)c12 (configuration not stated) | – | inconclusive: 31.6 µM [inhibitor, full curve, poor fit] |
| CCCN(CCC)CC(O)Cn1cc(/C=C/C(=O)c2ccc(OC)cc2)c2ccccc21 (configuration not stated) | – | active: 44.7 µM |
| CCc1ccc2[nH]c(=O)c(CN(CC3CCCO3)C(=S)NCc3ccco3)cc2c1 (configuration not stated) | – | inconclusive: 44.7 µM [inhibitor, partial curve] |
| CCC1C(=O)Nc2ccccc2N1C(=O)c1ccc(Cl)nc1 (configuration not stated) | – | active: 100 µM |
| COc1cc(/C=C2\C(=O)N(c3ccccc3)N=C2C)ccc1Oc1ccc([N+](=O)[O-])cc1[N+](=O)[O-] | – | active: 25.1 µM |
| c1ccc(COc2ccc(Nc3ncnc4nc[nH]c34)cc2)cc1 | – | inconclusive: 100 µM [inhibitor, single point] |
| CC(C)(C)c1ccc(C(=O)NCCCNC(=O)c2ccco2)cc1 | – | inconclusive: 56.2 µM [inhibitor, partial curve] |
| CCC1CCc2c(sc(NC(=O)C3CC=CCC3C(=O)O)c2C#N)C1 (configuration not stated) | – | inconclusive: 35.5 µM [inhibitor, single point] |

| SMILES | activity change, negative = inhibition | Potency |
| --- | --- | --- |
| CCN(Cc1nc2cc(Cl)ccc2c(=O)[nH]1)C(=O)C1CC(=O)N(c2cccc3ccccc23)C1 (configuration not stated) | inactive: -20.8% | – |
| O=C(NC(=S)Nc1ccccc1N1CCOCC1)c1cccc([N+](=O)[O-])c1 | – | inconclusive: 50.1 µM [inhibitor, partial curve] |
| Cc1ccc(-c2csc3ncnc(N4CCN(Cc5ccccc5)CC4)c23)cc1 | – | inconclusive: 12.6 µM [inhibitor, full curve, poor fit] |
| CCc1ccc(NC(=O)c2sc3nc4c(cc3c2N)CN(CC)CC4)cc1 | – | active: 56.2 µM |
| Cc1ccc(-c2nc(NC(=O)CSc3ncn[nH]3)ns2)cc1 | inactive: -29.4% [at 11.4 µM] | – |
| Cn1cccc1C(=O)NCCc1ccc(Cl)cc1 | – | inconclusive: 50.1 µM [inhibitor, partial curve, poor fit] |
| O=C(CNC(=O)c1nc[nH]c1C(=O)N1CCc2ccccc2C1)OCc1ccccc1 | – | inconclusive: 15.8 µM [inhibitor, full curve] |
| COc1ccc2[nH]c3c(c2c1)CCN1C(=O)C(CC(=O)NCCC2=CCCCC2)C[C@H](C(=O)N2CCOCC2)[C@@]31C (some centres not stated) | – | inconclusive: 63.1 µM [inhibitor, partial curve] |
| O=C(Nc1ccc(F)cc1)c1ccc(Cn2nc(N3CCN(c4ccccc4)CC3)ccc2=O)o1 | – | inconclusive: 44.7 µM [inhibitor, partial curve] |
| COc1ccc(C2C(C(C)=O)=C(C)N=c3s/c(=C\c4cc(C)n(C)c4C)c(=O)n32)c(OC)c1 (configuration not stated) | – | inconclusive: 39.8 µM [inhibitor, partial curve] |
| COc1ccc(-n2c(C)cc(C(=O)NC3CCCCC3)c2C)cc1 | – | inconclusive: 63.1 µM [inhibitor, partial curve, poor fit] |
| Cc1cc(O)c(/C=N/Nc2ccccc2)c(=O)o1 | – | active: 8.91 µM |
| Cc1ccc(O)c(-c2cc(-c3ccccc3[N+](=O)[O-])[nH]n2)c1 | – | inconclusive: 56.2 µM [inhibitor, partial curve] |
| O=C(O)C1OCC2(CO1)COC(C(=O)O)OC2 (configuration not stated) | – | inconclusive: 39.8 µM [inhibitor, single point] |
| O=C(Nc1ccc2c(c1)C(=O)N(CC1CCCO1)C2=O)c1cccc(Br)c1 (configuration not stated) | – | inconclusive: 39.8 µM [inhibitor, partial curve, poor fit] |
| Cc1ccccc1C1=CCN(c2ncc(NC(=O)c3ccc(Cl)cc3)cc2C(=O)O)CC1 | – | active: 79.4 µM |
| O=C(N/N=C/c1ccc(-c2cccc([N+](=O)[O-])c2)o1)c1cccs1 | inactive: -7.52% [at 11.4 µM] | – |
| CC1=NNC(=O)c2ccccc2O1 | – | active: 5.01 µM |
| CCN(CC)CCN1C(=O)C(O)=C(C(C)=O)C1c1ccc(OC)c(OC)c1 (configuration not stated) | inactive: 8.71% | – |
| O=C(NCc1cccnc1)C1CCN(S(=O)(=O)c2cc(Cl)ccc2Cl)CC1 | inactive: -2.76% | – |
| Cc1nn(S(=O)(=O)c2ccc(Cl)cc2)c(C)c1S(=O)(=O)N1CCOCC1 | – | inconclusive: 56.2 µM [inhibitor, partial curve] |

From PubChem BioAssay AID504339 (National Center for Advancing Translational Sciences (NCATS), 2011)
